Results from the supplement of paper PMC12632987.
Over roughly 2,300 sequences, “median log2 fold change of GCK-ALFA target abundance (FLAG IP / Myc IP barcode read proportion)” has its median near 0.095; the lowest 2% begin near -0.47. The list shows a part of the results.

B1: LC3A_132_316 (protein)
chain: MEEEYKKLLEEAEKKLEEAKKNVNDKEKVEKLLKEIRKLLEEAEKKVTPEQQAELFERVAEKLWEISKLADEAGQEDVADLADGLAVEAAARAIRAEEKI
B2: LC3A_132_303 (protein)
chain: EEELVKELIKTAKEALDIAKTDPSKVEEILAKLKEIRKLMKEVAEKVSPEKAAKAFEEVMDILIELSRIAAKAGQDEVADEAFALAAEAAQLAEEARKKI
B3: LC3A_6_2062 (protein)
chain: TKLTITIDALIKEEYLDRREEVAEEFKKAVEEAMEELKKKLGDNIKEVKIELETEGDFIRITVTVETEEKNIPEVLKAIDEVVESFEKYFSAAIISYEIE
B4: LC3A_28_1034 (protein)
chain: MELEKKAREAVEEAREQAAKGEEAVVTIEVGEMPTEEAERVVRETLEELIKISREYGNVKISVVIDVDGDQETADALIDVAEEAEKENPNLTVIIALDED
B5: LC3A_17_537 (protein)
chain: MEELRKRLEEVLRELERLVERVRPYVPEAAERAEERLREARELLERGDLEGAARLVVEVAEELADALEEAEFADPVEREVLIMEAEGLAIEAELILLKLE
B6: LC3A_28_1110 (protein)
chain: MDPEEKNEEALKEAKEAAKKGEPAVITIHVTSSDTEEDIEKTIETLKEIAELLKDVKDAAIIVDIDGKIPQEHLDKLAKEAEEIEKKYPNITVIIALDEN
B7: LC3A_78_2083 (protein)
chain: MKVIIVVDGEEAKEEAEKIKEKLKDADEIIVVELEELEEALEKVKDAEEIEVIIIAPTLDKVEEAIEKVKEFFKDRKMSEIIEIDEETGLYIGIVIIEKK
B8: LC3A_28_1130 (protein)
chain: SEADAIIAQAEAQTAAGIAAGEDVYVDLTITGVLTEEETRRIAAAIREQAKKAAAKGKVYIVITFDKLENAAQADLMADAADEIEAEYPNVSVIIALPED
B9: LC3A_free_39_2220 (protein)
chain: MREELEELVERIAEKSGLDLEEVRERLEELQEVGGLTEEQMLEIARELLEAVEAGADAREILERALEIAKELKAQGKTPEEIAKEILELIRDARNLVPLD
B10: LC3A_28_926 (protein)
chain: MTKEEVIEEIEETAEEAIESGEEAHIEVDIDSSMTKEEAEEVMEKVEEKVKELSEKGIKVLITVDLDNVSQEVEDIVVERLEEIEEEYPLVSSIIALDEE
B11: LC3A_3_1800 (protein)
chain: AEEKIAALLAALREAGKSEETIAAVREAAELLAERGFERALETFIAEMRELLDAPDELLLELAEEVLRRLRTEDLSEEELIEYIRELARLARNEAEIEEL
B12: LC3A_127_172 (protein)
chain: EKEELLEKLEELLEKLSEELSKENYDLEEIEKLTEEAIEVAKKLLELDPSFEPALKTLEEIKKIIEEMKKADEAKKEELKEHALLLVEGALIEVLSLRLK
B13: LC3A_132_235 (protein)
chain: QEEKYKEIREKLEELLEEARKNIDDLEKVQELVKQIQALLDEAKKELSLEKFIELAEEVAERLDELAEEAEAAGKEEVASLLENASLYADGLAIEAELKL
B14: LC3A_23_634 (protein)
chain: MYRLEIEIDLLGKKEDVLKAVEELKEHIEEVAEEEGVEIEELEVEIEEINDPEGTTTYARINVVLRGETKEKLQAVADAIIDKVEELGVSHIISVDIEKL
B15: LC3A_28_952 (protein)
chain: MSLEERLKKALEEAKKAAEAGEPAVITITVPGNATEEDIKKVIETLEEIAEILKDVEGAAIIIDVEAGVKEEHINKLADKAEEIEEKYPNVTVIIALDED
B16: LC3A_3_1402 (protein)
chain: FEEIKKEAEAFLKAAGASPEVIAAANEVLEELEKRGYLEAAKTFVEELKKLKDASDEILLDFLNEVLDYLKSNDSSEEEVVKKIKELATIAKNEHEIEEL
B17: LC3A_28_1131 (protein)
chain: SEADEIIAKAKEQVEAGIAAGEDIYVDLTIKGKMTKEETERVAEAIREEAKRGAAKGKVYIVITFDKNENAEQADLMADKADEIEAEYPNVSVIIALPEE
B18: LC3A_147_462 (protein)
chain: KIYEVTLDVLVKNLTEEIKKFFEELAEEIKKEVPNAKVELEFIQDPENPNETLVRLTVTVKTKEDAEKILDIVVEKLDEFEKKFGDQIVASMISVEEIEE
B19: LC3A_59_2020 (protein)
chain: SEEIEEYREKMRANIDDIDAFTATVREALEKFKDDPEKVKEILKAAMDVVVEELGADKEEAEKVLEEMLKILEEEKDKEKAIEKIVDLIRDLLLLTPIEE
B20: LC3A_28_1014 (protein)
chain: SHMEERVAALIAEIEAALAKGEYVVATLTITPEDSLEEVKAAMERVGKAALEAAKKGIVDVVVDLEKGVSQEKLDAVMEAADELEKKAPKLNVVIALEEE
B21: LC3A_free_39_2262 (protein)
chain: SEAERAAALAALRALAAQTSPEVRAAVLRLGDLLADDPELLRRLRDLLEAAIAKGPEVVAIFGAEAAEAVARIEAGEPRERAVEELLKLAEAAIEIEEID
B22: LC3A_55_2010 (protein)
chain: MKVNIVIDIDEKTGEITELEVYVDGAKEKILAKLKELGKELAAEIFEKAVAAPLDEKRMAELIKKYGAEAVKEAINTLIEVIKSTEGVDLNVIEEIDDNS
B23: LC3A_102_147 (protein)
chain: SPVEEIEKLKKEALEEGKKIAEKLAKEDPEKAKEILKLLEEGINAIAESAISEVEHGFEDLVALDKAEEALETLKKLGAEEGVALLEEYEEKAKEIVEKA
B24: LC3A_147_488 (protein)
chain: AEVDVDVIVKSEEAAEELKKKVEEIVKEMKEKGVNVELEIEVEELEPGVYYVRIKIKVKEKTQEEAKKAANEIVKKIDEIIEELKDEVLAALISIEETEK
B25: LC3A_3_1583 (protein)
chain: MEERVAAARERLRAAGMPEEVVDRAVRVIEALLAKGAEEAAELLLEGLLELHKVAPELLPETLEEVEKLVADESLTPEELLEKVREILTTALNEAEIIEL
B26: LC3A_3_1670 (protein)
chain: MEEIKKLLEKMEKAKTAKEKLEYLRKAAEKLLEYYGKEEEKKEVTENLEKLFSQDDEFLEEAVKILKEELEKVIENGPEEIEKLVETSKTLANESEIEEL
B27: LC3A_28_723 (protein)
chain: GELEESLEKAIKEAEEAAKAGKEVVITIKVPGNATEEDIEKVIEALYKIAEITKDLPSTSIIIDVDGGVKQEHIDKLADAAEEIEEKYPNVTVIIALDEE
B28: LC3A_3_1790 (protein)
chain: MEEELEELLERLREAGHSEETIEAVRETGELLIERGYEEALRTFIEEMRELLDAPDELLLELAEDVLELLLTEDISEEELRERIREEARLARLESEIIEL
B29: LC3A_132_315 (protein)
chain: MEEEYEKLRKEALKLLEEAKKNVNNLEKVKKLFEELRKILEEAEKKITPEQVAELFDEVADRLDEIARLAEAAGQEEVADLASGLAVEAAALSIRAEEKI

These binders were tested against MAP1LC3A, Q9H492 (assay: median log2 fold change of GCK-ALFA target abundance (FLAG IP / Myc IP barcode read proportion) (log2 ratio); each designed protein is fused to an ALFA-tag nanobody in HEK293 cells to bring the named protein to FLAG-tagged glucokinase (GCK); Myc marks an untargeted standard; higher = target protein stabilised (more abundant)). Details: target protein: 3xFLAG-MCP-GCK-ALFA reporter; HEK293 landing pad (RPLP).
In short: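 The readout is target abundance, the per-binder median log2 ratio of FLAG to Myc barcode read proportions. It came from HEK293 landing-pad cells carrying a recombined ALFA-nanobody-fused binder library, induced with 2 μg mL^−1 doxycycline and transfected with a plasmid for a FLAG-tagged target and a Myc-tagged standard. After 48 h, lysates were immunoprecipitated with anti-FLAG and anti-Myc, and circular RNA barcodes were reverse transcribed, amplified and sequenced. Each barcode needed a proportion of at least 10^−7 in both replicates and each binder at least 3 barcodes per replicate, a pseudocount of 10^−6 was added, and the replicates were pooled.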

Binder	median log2 fold change
B1	0.241
B2	0.291
B3	-0.06
B4	0.0335
B5	-0.141
B6	0.0413
B7	0.257
B8	-0.26
B9	0.312
B10	-0.244
B11	0.197
B12	0.145
B13	0.122
B14	0.231
B15	0.0656
B16	0.318
B17	-0.224
B18	0.0765
B19	-0.571
B20	-0.297
B21	0.24
B22	0.434
B23	0.259
B24	0.00167
B25	0.128
B26	0.204
B27	0.106
B28	-0.254
B29	0.422
